PMC4336329 (PLoS ONE, 2015)
Screen size: about 310,000 compounds; about 2,200 (0.71%) showed an effect of 50% or more. Effects have a minus sign here. The list shows a part of the results.

target: human ether-à-go-go-related gene (hERG) potassium channel (human, UniProt Q12809); assay: primary screen, population patch clamp on CHO cells stably expressing hERG
Sequence (Q12809 whole entry, looked up): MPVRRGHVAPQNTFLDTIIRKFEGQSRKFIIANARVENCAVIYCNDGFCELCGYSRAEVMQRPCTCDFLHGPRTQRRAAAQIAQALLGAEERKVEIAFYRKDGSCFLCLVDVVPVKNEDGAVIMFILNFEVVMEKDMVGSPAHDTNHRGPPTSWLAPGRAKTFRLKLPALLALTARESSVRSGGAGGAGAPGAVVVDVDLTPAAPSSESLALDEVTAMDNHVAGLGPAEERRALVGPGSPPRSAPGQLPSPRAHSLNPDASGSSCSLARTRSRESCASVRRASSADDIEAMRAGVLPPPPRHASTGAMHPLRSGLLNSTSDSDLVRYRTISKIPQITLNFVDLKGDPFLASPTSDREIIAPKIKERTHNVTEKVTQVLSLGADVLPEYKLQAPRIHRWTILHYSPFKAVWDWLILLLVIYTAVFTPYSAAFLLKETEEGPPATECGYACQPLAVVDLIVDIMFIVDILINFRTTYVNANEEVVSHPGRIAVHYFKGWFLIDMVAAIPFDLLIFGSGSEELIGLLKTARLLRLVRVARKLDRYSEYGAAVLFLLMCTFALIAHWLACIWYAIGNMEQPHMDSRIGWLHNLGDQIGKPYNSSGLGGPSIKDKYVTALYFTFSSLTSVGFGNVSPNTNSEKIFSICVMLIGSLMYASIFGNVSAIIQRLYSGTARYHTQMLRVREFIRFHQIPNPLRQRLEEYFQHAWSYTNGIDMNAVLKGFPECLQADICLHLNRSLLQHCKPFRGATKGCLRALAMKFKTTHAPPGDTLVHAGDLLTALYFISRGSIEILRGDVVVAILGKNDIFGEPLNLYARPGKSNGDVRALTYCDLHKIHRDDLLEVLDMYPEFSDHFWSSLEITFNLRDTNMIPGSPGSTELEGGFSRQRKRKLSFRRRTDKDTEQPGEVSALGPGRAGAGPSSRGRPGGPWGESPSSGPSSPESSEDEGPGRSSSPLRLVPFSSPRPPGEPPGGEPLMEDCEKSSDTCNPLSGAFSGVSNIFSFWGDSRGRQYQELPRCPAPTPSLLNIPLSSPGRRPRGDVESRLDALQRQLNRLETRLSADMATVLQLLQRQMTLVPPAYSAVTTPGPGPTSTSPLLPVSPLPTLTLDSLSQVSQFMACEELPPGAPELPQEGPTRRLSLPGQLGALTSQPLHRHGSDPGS

Structure (SMILES) | hERG current change (%, negative = inhibition) at 1uM [%]
O=C(CSc1n[nH]c(-c2ccc(S(=O)(=O)NC3CCCCC3)cc2)n1)N1CCCC1 | -0.71
CCN=C1SC(CC(=O)NC2CCCCC2)C(=O)N1CC (stereo not drawn) | 5.5
CCC1=Nc2cc(C(=O)NCCN3CCCC3)ccc2Sc2ccc(C)cc21 | 7.13
CC(C)CN(C(=O)COC(=O)c1ccc(Br)o1)c1c(N)n(Cc2ccccc2)c(=O)[nH]c1=O | 12
O=c1c2cc(NC(=S)N3CCCCC3)ccc2nc2n1CCCCC2 | -3.2
CC1CCN(C(=O)COc2ccc(S(=O)(=O)N3CCOCC3)cc2)CC1 | 4.27
Cc1ccc(C)c(Cn2c3ccccc3c3cnn(CC(=O)NCCN4CCOCC4)c(=O)c32)c1 | 2.36
CCC(c1nnnn1Cc1ccco1)N(Cc1cc2cc(OC)ccc2[nH]c1=O)C1CCCCC1 (stereo not drawn) | 3.98
CC(=O)OC[C@H]1O[C@@H](Sc2cccc3cccnc23)[C@H](OC(C)=O)[C@@H](OC(C)=O)[C@@H]1OC(C)=O | 4.36
COc1ccccc1CN1CC(C(=O)N(Cc2cnn(C)c2)C(C)C)CCC1=O (stereo not drawn) | 16.9
Cc1ccc(-c2cc(C(F)F)nc3sc4c(=O)[nH]cnc4c23)cc1 | 8.64
CNc1nc(N)c([N+](=O)[O-])c(N2CCCCCC2)n1 | 20
COc1ccc(NC(=O)CC23CC4CC(C2)CC(n2nnc(C)n2)(C4)C3)cc1 | 7.05
CS(=O)(=O)N1CCCC(C(=O)NCc2cccs2)C1 (stereo not drawn) | 1.1
O=C(Cc1c(Cl)cccc1Cl)N/N=C/c1cccnc1 | 15.8
C#Cc1ccc([C@H]2C=C(C(=O)N3CCN(Cc4ccc5c(c4)OCO5)CC3)O[C@@H](OCc3ccc(CO)cc3)C2)cc1 | -1.37
CCCn1nc2cc(C(=O)NCCc3ccc(C)cc3)ccc2c1OCC | -6.88
O=C(O)C(=O)Nc1ccc(NC(=O)C(c2ccccc2)c2ccccc2)cc1 | 14.2
Oc1cccc(O)c1O | 13.6
CC(=O)c1c(C)[nH]c(C(=O)OCC(=O)NCc2ccc3c(c2)OCO3)c1C | 13.9
O=C(NCc1cccs1)c1cc(-c2ccccn2)nc2ccc(Br)cc12 | 14.9
O=C1OC2(CCCCC2)OC(=O)C1=CNc1ccc2c(c1)OCO2 | 6.14
Cc1nnnn1-c1ccc(CC(=O)O)cc1 | 6.17

Structure (SMILES) | hERG current change (%, negative = inhibition) at 1uM [%]
CNC(=O)c1[nH]cnc1C(=O)NCC(=O)OC(C)(C)C | 4.05
O=C(CSc1ccccc1)NN1C(=O)c2ccccc2C1=O | 3.52
COCCNC(=S)N1CCC(NC(=O)C23CC4CC(CC(C4)C2)C3)CC1 | 9.6
COc1ccc(OC)c(C2C3=C(CCCC3=O)Nc3c2c(=O)n(C)c(=O)n3C)c1 (stereo not drawn) | 2.41
CCCCS(=O)CC(O)COCC (stereo not drawn) | 15.6
COc1ccc(-c2[nH]nc3c2C(c2ccccc2OC(=O)N2CCOCC2)C(C#N)=C(N)O3)cc1 (stereo not drawn) | 6.34
COc1ccc(CNC(=O)c2csc(Cc3ccccc3)n2)cc1 | 9
CCCOc1ccccc1OCC(=O)Nc1ccc(S(=O)(=O)N2CCCCC2)cc1 | 10.9
CCc1ccc(C(=O)NNC(=O)c2ccc(=O)n(C)n2)cc1 | 17
C=C(C)CN(CC)C(=O)CN1C(=O)NC2(CCCc3ccccc32)C1=O (stereo not drawn) | 9.87
CC(Sc1nc(N)cc(=O)[nH]1)C(=O)Nc1nc2c(s1)CCCC2 (stereo not drawn) | 6.44
Cc1ccc(S(=O)(=O)CCC(=O)Nc2ccc3c(c2)OCO3)cc1 | -8.83
Cc1cc(C)n2nc(SCC(=O)NC3CCCCC3C)nc2n1 (stereo not drawn) | 13.9
CC12CNCC(C)(CN(C3(O)C(=O)Nc4ccc(Br)cc43)C1)C2=O (stereo not drawn) | 11.6
O=C(NCc1cccs1)C(=O)NCC1OCCCN1S(=O)(=O)c1ccccc1 (stereo not drawn) | 6.88
C=CCn1c(Br)nc2c1c(=O)[nH]c(=O)n2C | -1.99
O=C1CCCc2nc3c(cc21)C(O)Oc1ccccc1-3 (stereo not drawn) | 4.74
Cc1cccc(NC(=O)CCn2ccnc2C)c1 | 4.57
CCCCCCn1c(C(C)O)nc2ccccc21 (stereo not drawn) | -3.7
CCN(CC)S(=O)(=O)c1ccc(-c2nnc(SCC(N)=O)n2CC)cc1 | 20.4
COc1ccc(CCN2CC(C(=O)NCCc3ccccc3)CC2=O)cc1OC (stereo not drawn) | 12.9
CC(=O)c1c(C)nn(C(=O)N2CCOCC2)c1C | 3.6
